Several values for one entry are separate records, joined by “and”; a condition that tells them apart may be missing. Identical values can stand only once. The list shows a part of the results. Many values rest on one well or one pass, so single values are uncertain.
Test system: Candida albicans DPL-15
Experiment: growth (OD600) after compound treatment (apparently relative to screen median) (relative growth (fraction; screen median 1.02)); DPL-15 is a caspofungin-resistant clinical isolate; higher = more fungal growth (less antifungal activity)
Conditions: 25 µM; RPMI 1640; 48 h; 30 °C

Compound | growth
CC12CC/C(=C/c3cccc(n3)C(=O)NCC3(CCCCC3)CC(=O)NC1)C2 (stereo not drawn) | 1.34
CC(=O)N1C(=O)NC(C)=C(C#N)C1c1ccccc1 (stereo not drawn) | 1.15
COc1cc(O)c2c(=O)c3c(CC=C(C)C)cc(O)c(O)c3oc2c1 | 0.267
COC(=O)c1cc2c(c3c4ccccc4n(S(=O)(=O)c4ccccc4)c13)C(=O)N(Cc1ccc(C)cc1)C2 | 0.917
COC(=O)C1=C(C)N(Cc2ccccc2)C(=S)NC1c1ccc(-c2ccccc2)cc1 (stereo not drawn) | 0.913
Cc1ccc(CN2C(=O)c3[nH]nc(CC(C)C)c3C2c2ccc(F)cc2)o1 (stereo not drawn) | 0.974
COc1cc(O)c2c(OC)c3c(=O)cc(C)oc3cc2c1OC | 1.16
CC(C)CC1=NCC(C)(C)NC2=C1C(c1ccccc1)NC2=O (stereo not drawn) | 0.912
CC#CCN1c2ccccc2[C@]23C[C@@H](C(=O)OC)N(S(=O)(=O)c4ccc(Br)cc4)C2=NC(C(=O)OC)=C(C(=O)OC)[C@H]13 | 0.901
C[C@@H]1/C=C\CC(=O)OCCCC(=O)N[C@@H]1c1cccc(Br)c1 | 1.22
COc1ccc(N2C(=O)C3=C(C(CC(C)C)=NCC(C)(C)N3)C2c2ccc(C)cc2)cc1 (stereo not drawn) | 1.06
CCCN1C(=S)NC(c2ccc(OC)cc2)C(C(C)=O)=C1C (stereo not drawn) | 0.934
COc1ccc2c(c1-c1c3c(cc(Br)c1OC)CCCC3)CCCC2 | 1.15
CC1=C(I)[C@@]2(CCCO)c3cc4c(cc3CC[C@H]2[C@@H]1C)OCO4 | 0.812
CC(C)C1=NCCNC2=C1C(c1ccc3c(c1)OCO3)N(c1ccccc1)C2=O (stereo not drawn) | 0.962
CC(=O)C1=C(C)N(Cc2ccccc2)C(=O)N[C@H]1c1cccc(C(F)(F)F)c1 | 0.918
COc1ccc(OC)c2c(O)c(Br)cc(Br)c12 | 1.01
C#CCOC[C@@H](NC(=O)[C@@H]1C[C@@H](O)CN1C(=O)c1cccc2cnnn12)c1ccccc1 | 1.14
CC(=O)C1=C2C=C(C)CCN2C(=O)NC1c1ccccc1 (stereo not drawn) | 0.954
CCc1ccccc1-n1nc2c(c1C(C)C)C(c1ccc3c(c1)OCO3)NC2=O (stereo not drawn) | 0.956
COc1ccc(C2NC(=S)N(C)C(C)=C2C(C)=O)cc1 (stereo not drawn) | 0.993

Compound | growth
COc1cccc2c1C1(Cc3occc(=O)c3OS(C)(=O)=O)CCCCC1=N2 (stereo not drawn) | 1.14
CC(=O)c1ccc(OCc2ccccc2)cc1OCC=C(C)C | 0.786
CCCC(CC(C)C)OS(=O)(=O)NC(C)(C)C (stereo not drawn) | 1.06
CCOC(=O)c1cc2nc(/N=C(\C)N(C)C)nc(O)c2nc1C(=O)OCC | 1.12
CC(C)C1=NCCNC2=C1C(c1ccccc1)N(Cc1ccccc1)C2=O (stereo not drawn) | 1.03
COc1ccccc1Cn1nc(CC(C)C)c2c1C(=O)NC2c1cccc(C(F)(F)F)c1 (stereo not drawn) | 1.01
C=CCC1=C(OC)C(CC=C)(CCC(=C)C)C(=O)C(C(=O)c2ccccc2)=C1O (stereo not drawn) | 0.745
COC(=O)C1=C(C)N(Cc2ccc(F)cc2)C(=S)NC1c1ccccc1F (stereo not drawn) | 1.01
CO[C@@H]1[C@H](O)CC[C@]2(O)CN(c3ccc4[nH]ccc4c3)[C@@H](CC=C(C)C)[C@](C)(O)[C@@H]12 | 0.922
COc1ccc(N2C(=O)C3=C(C(C(C)C)=NCCN3C)C2c2ccc(F)cc2)cc1 (stereo not drawn) | 0.984
CC(C)[C@@H]1CC[C@@H](C)C[C@@H]1NS(=O)(=O)NC(C)(C)C | 1.16
CCCc1c(Cl)c2c(OC)cc(-c3c(OC)cc(O)c(C(=O)c4ccccc4)c3O)c(O)c2c(=O)n1C | 1.11
COc1ccc(N2C(=O)c3[nH]nc(CC(C)C)c3C2c2cccc(C(F)(F)F)c2)c(OC)c1 (stereo not drawn) | 1
COc1ccc(CN2CCc3nc(-c4ccc(OC)cc4)c4c(c3C2)CO[C@@H](C)C4)cc1 | 0.998
COC(=O)C1=C(C)N(C)C(NCc2cccc(C(F)(F)F)c2)=NC1c1ccccc1C(F)(F)F (stereo not drawn) | 0.962
COC[C@@H](OC)[C@]12c3ccccc3[C@H](c3ccccc31)[C@H]1[C@@H]2C(=O)N2CCCC[C@]12C | 1.25
CN1CCN=C(c2ccccc2)C2=C1C(=O)N(c1ccccc1)C2c1ccccc1 (stereo not drawn) | 0.942
COC(=O)[C@]1([C@H]2CCC(=O)O2)CC(=O)c2c(O)ccc(Cl)c2O1 | 1.05
CCN1C(=S)NC(c2cccc(F)c2)C(C(=O)OC)=C1C (stereo not drawn) | 1.3
CC(C)Cc1n[nH]c2c1C(c1cccc(C(F)(F)F)c1)N(Cc1ccccc1)C2=O (stereo not drawn) | 0.946
COc1ccc(N2C(=O)C3=C(C(CC(C)C)=NCCN3)C2c2ccc(C)cc2)cc1 (stereo not drawn) | 0.896

Compound | growth
Cc1cc2c(nc1C)CCCN2S(=O)(=O)c1ccc(C#N)cc1 | 0.944
COc1ccc(C(=O)Cn2nc(-c3ccc(F)cc3)cc2N)cc1 | 1.06
CC(C)Cc1n[nH]c2c1C(c1ccccc1)NC2=O (stereo not drawn) | 1.17
C=CCOC(=O)N[C@@H](C1CC1)[C@@H](C)/C=C/CC(=O)OC | 1.11
CC1=C2CC[C@]3(C)[C@H](CC[C@@H]4[C@H]5[C@H](C(C)C)CC[C@]5(C(=O)O)CC[C@]43C)[C@@]2(C)CCC1=O | 1.01
COc1cc(CO[C@H]2CC=C(c3ccccc3)O[C@@H]2CO)cc(OC)c1 | 0.993 and 0.9
COC(=O)c1[nH]c2ccccc2c1[C@]12CCN(C(=O)C3CC3)[C@H]1Nc1ccccc12 | 1.08
COC(=O)c1c(O)ccc(O)c1-c1c(O[Si](C(C)C)(C(C)C)C(C)C)cc(O)cc1O[Si](C(C)C)(C(C)C)C(C)C | 0.925
COc1ccc(N2C(=O)c3c(c(C)nn3C)C2c2ccc3c(c2)OCO3)cc1 (stereo not drawn) | 0.871
COc1ccc(N2C(=O)c3[nH]nc(CC(C)C)c3C2c2ccccc2Cl)c(OC)c1 (stereo not drawn) | 0.982
COc1cc(I)c(CCN2C(=O)[C@H]3[C@H]4c5ccccc5[C@]([C@H](OC)C(F)(F)F)(c5ccccc54)[C@H]3C2=O)cc1OC | 1.04
C=CCN1C(=O)C2=C(C(CC(C)C)=NCCN2C)C1c1ccc(F)cc1 (stereo not drawn) | 1.13
CCCCS(=O)(=O)N1CCCc2nc(-c3ccc(F)cc3)ccc21 | 0.958
CC(C)c1cc(Nc2cc(O)cc(O)c2C(=O)N2Cc3ccccc3C2)n(C)n1 | 1.02
O=c1c(OCC#Cc2ccccc2)c(-c2ccccc2)oc2ccccc12 | 1.09
O=C1NC(c2ccccc2)c2c(-c3ccccc3)nn(-c3ccc(OC(F)(F)F)cc3)c21 (stereo not drawn) | 0.873
COC(=O)[C@]1([C@@H]2CCC(=O)O2)CC(=O)c2c(OC)cc(C)c(B3OC(C)(C)C(C)(C)O3)c2O1 | 0.976
COC(=O)c1cc(O)c(Cl)c(O)c1 | 0.979
COc1ccc(N2C(=O)C3=C(C(C)=NCCN3)C2c2ccc(C)cc2)cc1 (stereo not drawn) | 0.923
CN1CCN=C(c2ccccc2)C2=C1C(=O)NC2c1ccc(Br)cc1 (stereo not drawn) | 0.923
CCOC(=O)/C(C)=N/NC(C)=O | 0.918

Compound | growth
COC(=O)[C@@]12Oc3ccc(-c4ccnn4C)c(O)c3C(=O)C1=C(N)C[C@H](C)[C@H]2O | 1.2
COC(=O)c1cc2c(c3c4cc(OC)ccc4n(S(=O)(=O)c4ccc(F)cc4)c13)C(=O)N(Cc1ccccc1)C2 | 0.927
COC(=O)C(C(=O)OC)N(C)Cc1ccccc1 | 0.881
N#Cc1ccc(C(=O)COC(=O)c2c(N)cccc2F)cc1 | 1
COc1ccc(C[C@H]2COC[C@@H]2Cc2ccc3c(c2)OCO3)cc1OC | 1.03
COC(=O)[C@@H]1C[C@@]2(Cc3occc(=O)c3O)c3ccccc3N[C@H]2N1C(=O)C(F)(F)F | 1.07
Cc1nn(C)c2c1C(c1ccccc1)N(c1ccccc1)C2=O (stereo not drawn) | 1.04
CS(=O)(=O)Oc1c(C[C@]23CCCCC2=Nc2ccccc23)occc1=O | 1.06
C#CCC(C)(C)CNC(=O)CC1(CNC(=O)c2cc(CS(=O)(=O)c3ccc(C)cc3)ccc2O)CCCCC1 | 1.23
COC(=O)[C@@]12Oc3ccc(-c4ccc(N)cc4)c(O)c3C(=O)C1=C(N)C[C@H](C)[C@H]2O | 1.16
C[C@H]1Cc2cc3c(cc2[C@@]2(O1)C(=O)Nc1ccccc12)OCO3 | 0.971
C=CCO[C@]12OC[C@@H]3C[C@@]1(C)C(=O)C(C)=C[C@@H]32 | 0.971
COc1ccc([C@@]23Oc4cc(OC)cc(OC)c4[C@@](O)(C2=O)[C@H](C(=O)N(C)OC)[C@H]3c2ccccc2)cc1 | 0.975
COc1ccc(N2C(=O)c3[nH]nc(CC(C)C)c3C2c2cc(C(F)(F)F)ccc2C(F)(F)F)cc1 (stereo not drawn) | 0.972
COC(=O)C1=C(C)N(CCc2cccs2)C(=S)NC1c1ccccc1 (stereo not drawn) | 1.06
COc1cc(O)c2c(=O)c3c(CC=C(C)C)cc(OC)c(O)c3oc2c1 | 1.04
CC(C)(C)NS(=O)(=O)OCCCCC1CCCCC1 | 1.07
COc1ccc(N2C(=O)c3[nH]nc(CC(C)C)c3C2c2cnccc2OC)cc1 (stereo not drawn) | 0.964
COC(=O)C1=C(C)N(Cc2ccc(F)cc2)C(=S)NC1c1cccc(Cl)c1 (stereo not drawn) | 0.927
COc1ccc([C@@H]2[C@@H](C(=O)NC3CCCC3)[C@H](C(=O)NC3CCCC3)[C@H]2c2ccc(OC)c(OC)c2OC)c(OC)c1OC | 1.11

From the supplement of paper PMC10986608
